# Experimental data as given in PubChem BioAssay AID485281 (National Center for Advancing Translational Sciences (NCATS), 2010).
# The whole screen tested about 350,000 compounds, of which about 260 (0.074%) were called active. This list was built around the results that the source calls inconclusive (neither active nor inactive); the mix of calls is not that of the screen. The call rests on the fitted dose curve; in most records, active means well fitted inhibition curve with a large enough effect; inconclusive means small, poorly fitted or top-dose-only effect; inactive means no such curve, though single readings can be large or run the other way. A potency beside an inconclusive call is a rough fit, not a confirmed value.
# Biological target: Ferritin light chain (Equus caballus) (UniProt P02791)
# UniProt P02791, sequence (P02791 whole entry, looked up): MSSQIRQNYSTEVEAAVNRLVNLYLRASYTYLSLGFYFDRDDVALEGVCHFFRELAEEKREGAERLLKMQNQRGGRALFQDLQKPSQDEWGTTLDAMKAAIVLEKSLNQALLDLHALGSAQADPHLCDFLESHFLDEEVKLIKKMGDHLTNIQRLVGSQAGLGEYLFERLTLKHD
# Assay: qHTS Assay for Identification of Novel General Anesthetics; further: nearly all actives have a fitted effect of over 20% in size
# Details: apoferritin/1-aminoanthracene competitive binding, fluorescence; activity change, negative = displacement: at 77.5 µM (top of the series)
# Summary of the method: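 Horse-spleen apoferritin (10 uM) in 50% saturated 1-aminoanthracene in PBS was incubated 10 min at room temperature with compound. Fluorescence (ex 380, em 535 nm) was normalized to free and bound 1-AMA, with concentration-response fitted by a four-parameter Hill equation.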
# On the % scale 0 is the no-effect control and ±100 the full control effect; potency means the concentration at half of the fitted maximal effect; tags describe the fitted curve by direction and shape.
SMILES,Potency,"activity change, negative = displacement"
CCCCN(CC)C(=O)c1ccc(Cl)cc1,"inconclusive: 28.2 µM [inhibitor, partial curve]",–
Cc1nn(Cc2ccccc2)c2c1C(c1cccc(Cl)c1)C(C#N)=C(N)O2 (stereo unspecified),"inconclusive: 3.55 µM [inhibitor, full curve, poor fit]",–
CC(=O)N1CCc2c(sc3c2c(=O)n(-c2ccccc2Cl)c(=O)n3Cc2cccc(C)c2)C1,"inconclusive: 28.2 µM [inhibitor, partial curve]",–
C/C(=N\N=C1\NC(=O)C(CC(=O)Nc2ccc(C)c(Cl)c2)S1)C(C)(C)C (stereo unspecified),"inconclusive: 12.6 µM [inhibitor, partial curve]",–
O=C(CC12CC3CC(CC(C3)C1)C2)Nc1nncs1,"inconclusive: 8.91 µM [inhibitor, partial curve]",–
CCOC(=O)N1CCN(Cc2nc3cc(NC(=O)c4ccccc4Cl)ccc3n2C(C)C)CC1,"inconclusive: 35.5 µM [inhibitor, single point]",–
Clc1ccc(Nc2c3c(nc4ncnn24)CCC3)cc1,–,inactive: -7.59%
O=C(Nc1ccc(S(=O)(=O)N2CCCCCC2)cc1)c1ccc(Br)o1,"inconclusive: 14.1 µM [inhibitor, partial curve]",–
CN(C(=O)c1cc([N+](=O)[O-])ccc1N1CCCC1)C1CCCCC1,"inconclusive: 25.1 µM [inhibitor, partial curve]",–
COc1ccc(-n2c(C)c3c(OC)cccc(=O)c3c2C)cc1,"inconclusive: 31.6 µM [inhibitor, partial curve]",–
CC1CCCN(C(=S)SCC(=O)c2cc(Br)cc(Br)c2O)C1 (stereo unspecified),"inconclusive: 44.7 µM [inhibitor, single point]",–
CCOC(=O)c1c(NC(=O)CSc2nnc(CNc3ccc(F)cc3)o2)sc(C(C)=O)c1C,"inconclusive: 35.5 µM [inhibitor, partial curve]",–
O=C(N/N=C/c1ccc(OC(=O)c2ccccc2Cl)cc1)c1ccc(O)cc1,"inconclusive: 35.5 µM [inhibitor, partial curve]",–
COc1cccc(N2CC(C(=O)Nc3ccc(C(=O)OC(C)C)cc3)CC2=O)c1 (stereo unspecified),"inconclusive: 35.5 µM [inhibitor, partial curve]",–
CC1CCc2nc(NC(=O)Cc3cccs3)sc2C1 (stereo unspecified),–,inactive: -19.2%
O=C(CSc1ccc(Cl)cc1)N1CCN(c2ccc([N+](=O)[O-])cc2Cl)CC1,"inconclusive: 28.2 µM [inhibitor, partial curve]",–
Cc1ccc(NC(=O)c2cc(S(=O)(=O)NCCC3=CCCCC3)ccc2F)cc1C,"inconclusive: 4.47 µM [inhibitor, partial curve, poor fit]",–
Cc1cccc(-c2nc3scc(CCNS(=O)(=O)c4ccc(F)cc4C)n3n2)c1,"inconclusive: 35.5 µM [inhibitor, single point]",–
O=[N+]([O-])c1ccc(Cl)c(-c2ccc(/C=N/c3c(-c4ccco4)nc4ccccn34)o2)c1,–,inactive: 1.03%
O=[N+]([O-])c1ccccc1N/N=C/c1c[nH]c2ccccc12,"inconclusive: 35.5 µM [inhibitor, single point]",–
CCOC(=O)/C(C#N)=C1/C=Cc2ccccc2N1CC,"inconclusive: 39.8 µM [inhibitor, partial curve]",–
CCOC(=O)Cc1csc(NC(=O)c2sc3nc4ccc(CC)cc4cc3c2N)n1,"inconclusive: 39.8 µM [inhibitor, partial curve]",–

SMILES,Potency,"activity change, negative = displacement"
COC(=O)c1cccc(NC(=S)NCCC2=CCCCC2)c1,"inconclusive: 28.2 µM [inhibitor, partial curve]",–
CC(/C=C/c1ccccc1)=N\Nc1nc2c(c(=O)[nH]c(=O)n2C)n1CCO,–,inactive: -0.31%
CC(C)N(C(=O)NC(=O)Nc1ccc(S(=O)(=O)N2CCCC2)cc1)S(C)(=O)=O,"inconclusive: 20 µM [inhibitor, partial curve]",–
CCOC(=O)c1sc2nc3c(SCCC(=O)O)cc(C(=O)c4cc(OC)ccc4O)cn3c(=O)c2c1C,–,inactive: -11.8%
CCOC(=O)CN(C(=O)CSc1nnc2c(n1)[nH]c1ccc(F)cc12)c1ccccc1,"inconclusive: 10 µM [inhibitor, partial curve]",–
CCOC(=O)c1c(NC(=O)/C=C/c2ccc(OCC)c(OC)c2)sc2c1CCC2,–,inactive: 0.825%
CCOc1cccc2sc(N(CCN(CC)CC)C(=O)c3ccc(S(=O)(=O)N4CCCCC4)cc3)nc12,"inconclusive: 50.1 µM [inhibitor, single point]",–
COc1ccccc1-c1nnc(C2CCN(S(=O)(=O)c3ccccc3[N+](=O)[O-])CC2)o1,"inconclusive: 44.7 µM [inhibitor, single point]",–
C=CCN1C(=O)c2ccc(C(=O)N(C)CC(=O)Nc3ccccc3C(F)(F)F)cc2C1=O,–,inactive: -6.2%
CC(C)CC(=O)C1CCCN(C(=O)c2ccc3oc(Cc4ccccc4)nc3c2)C1 (stereo unspecified),"inconclusive: 35.5 µM [inhibitor, partial curve]",–
CC(=O)c1cc(C#N)c(Oc2cc(C)cc(C)c2)nc1C,"inconclusive: 35.5 µM [inhibitor, partial curve]",–
Cc1cccc(N(CC(=O)N=Nc2c(O)[nH]c3ccccc23)S(C)(=O)=O)c1C,"inconclusive: 20 µM [inhibitor, partial curve]",–
CCCCOC(=O)Nc1ccc(N2CCCCC2)cc1,"inconclusive: 28.2 µM [inhibitor, partial curve]",–
CCCCNC(=O)C1CCN(Cc2ccc(OCc3ccccc3)cc2)CC1,"inconclusive: 56.2 µM [inhibitor, single point]",–
CCOc1ccc(CCNc2ncnc3onc(-c4ccc(Cl)cc4)c23)cc1,"inconclusive: 14.1 µM [inhibitor, partial curve]",–
CS(=O)(=O)N(CC(=O)N1CCCCCC1)c1cccc([N+](=O)[O-])c1,–,inactive: -7.65%
CCc1c(C(=O)Nc2ncn(Cc3cccc(C)c3)n2)csc1C,"inconclusive: 35.5 µM [inhibitor, single point]",–
O=C(COc1ccc(Br)cc1)N1CCC(c2ccccc2)C1 (stereo unspecified),"inconclusive: 25.1 µM [inhibitor, partial curve]",–
COC(=O)c1ccccc1NC(=S)NC(NC(=O)COc1ccccc1)C(Cl)(Cl)Cl (stereo unspecified),"inconclusive: 12.6 µM [inhibitor, partial curve]",–
O=C(COC(=O)Cc1cn2ccsc2n1)NC12CC3CC(CC(C3)C1)C2,"inconclusive: 20 µM [inhibitor, partial curve]",–
Clc1ccccc1OCCCOc1cccc2cccnc12,"inconclusive: 31.6 µM [inhibitor, single point]",–
CCCCCn1c(CCCNC(=O)c2cccc(C)c2)nc2ccccc21,–,inactive: 27.8%

SMILES,Potency,"activity change, negative = displacement"
Cc1cc(NC(=O)COc2ccccc2)ccc1Cl,"inconclusive: 35.5 µM [inhibitor, single point]",–
CCc1ccc(N2NC(=O)/C(=C/C=C/c3ccco3)C2=O)cc1,–,inactive: -0.438%
CCOc1ccc(Cl)cc1/C=N/NC(=O)CNC(=O)c1ccccc1,"inconclusive: 39.8 µM [inhibitor, partial curve, poor fit]",–
O=S(=O)(NCc1ccc(Cl)cc1Cl)c1cccs1,"inconclusive: 20 µM [inhibitor, partial curve]",–
CC(C)CC(=O)Nc1ccc(C(=O)COc2ccc(-c3nnco3)cc2)cc1,"inconclusive: 31.6 µM [inhibitor, single point]",–
C/C(=N\NS(=O)(=O)c1ccc(Br)cc1)c1ccncc1,–,inactive: -21.2%
COc1cccc(-c2nc3cc(C)ccc3o2)c1,"inconclusive: 2.82 µM [inhibitor, partial curve, poor fit]",–
Cc1ccc(C(=S)NCS(=O)(=O)c2ccc(C)cc2)cc1,"inconclusive: 17.8 µM [inhibitor, partial curve]",–
CCN(CC)c1ccc(NC(=O)c2ccc(Br)o2)cc1,"inconclusive: 31.6 µM [inhibitor, single point]",–
CCN(CC)C(=O)CCCOc1ccc(Cl)cc1Cl,"inconclusive: 44.7 µM [inhibitor, partial curve]",–
O=C(O)CCC1CCCC1,–,inactive: 6.95%
CCc1cccc(CC)c1NC(=S)NCCc1ccc(O)c(O)c1,–,inactive: -5.05%
COCCCN1C(=O)C(O)=C(C(=O)c2ccc(C)o2)C1c1cccc(Br)c1 (stereo unspecified),"inconclusive: 28.2 µM [inhibitor, partial curve]",–
CCCc1cc(=O)n2[nH]c(C)c(-c3ccccc3)c2n1,–,inactive: -7.45%
COC(=O)c1scc(-c2ccc(C)cc2)c1S(=O)(=O)Nc1cccc(Cl)c1C,–,inactive: -10.6%
COc1cccc(O)c1CN1CCC(C(=O)Nc2ccc(Oc3cccnc3)cc2)CC1,"inconclusive: 50.1 µM [inhibitor, single point]",–
COc1ccc(Nc2nc(Nc3ccc(OC)cc3)nc(-n3[nH]c(=O)c(C)c3C)n2)cc1,"inconclusive: 12.6 µM [inhibitor, partial curve]",–
O=C1C(Cl)=C(Nc2ccccc2O)C(=O)N1c1ccccc1,"inconclusive: 28.2 µM [inhibitor, partial curve]",–
O=C(/C=C/c1ccccc1)CC(O)(c1ccccc1)C(F)(F)C(F)F (stereo unspecified),"inconclusive: 15.8 µM [inhibitor, partial curve]",–
CCc1ccc(C(=O)CSc2n[nH]c(C)n2)cc1,"inconclusive: 56.2 µM [inhibitor, single point]",–
Cc1ccc(NC(=O)CCC(=O)NNC(=O)NC23CC4CC(CC(C4)C2)C3)cc1C,"inconclusive: 12.6 µM [inhibitor, partial curve]",–
Cn1c(C(O)c2ccccc2)nc(Cl)c1Cl (stereo unspecified),"inconclusive: 56.2 µM [inhibitor, single point]",–
